According to PubChem BioAssay AID1768 (National Center for Advancing Translational Sciences (NCATS), 2009):
The whole screen tested about 270,000 compounds, of which about 620 (0.23%) were called active. The shares of active, inactive and inconclusive entries below differ from those in the screen. Calls follow the shape of the dose curve; as a rule, active = well fitted inhibition curve with a large enough effect in the polarisation, with a control signal flat (not every such curve was filed as active); inconclusive = small, poorly fitted or top-dose-only effect, or effect the other way, or a change in a side signal; inactive = no such curve, though single readings can be large or run the other way; the % refers to the polarisation. Where the call is inconclusive, the potency comes from a doubtful curve fit. “Side channel” marks fits to a control or component signal instead of the main read-out.

These molecules were tested against Menin (Homo sapiens) (UniProt O00255) (assay: qHTS Assay for Inhibitors Targeting the Menin-MLL Interaction in MLL Related Leukemias: Competition With Texas Red Labeled MLL-derived Mutant Peptide). Settings: fluorescence polarization; FP activity change, negative = inhibition: at 61.6 µM (top of the series).
For FP activity change, negative = inhibition in this document: % of control where 0% means no effect.
Potency is read from the fitted curve at half-maximal effect; tags tell the direction and shape of the fitted curve or compound fluorescence and quenching.

Chain of UniProt O00255 (O00255 whole entry, looked up): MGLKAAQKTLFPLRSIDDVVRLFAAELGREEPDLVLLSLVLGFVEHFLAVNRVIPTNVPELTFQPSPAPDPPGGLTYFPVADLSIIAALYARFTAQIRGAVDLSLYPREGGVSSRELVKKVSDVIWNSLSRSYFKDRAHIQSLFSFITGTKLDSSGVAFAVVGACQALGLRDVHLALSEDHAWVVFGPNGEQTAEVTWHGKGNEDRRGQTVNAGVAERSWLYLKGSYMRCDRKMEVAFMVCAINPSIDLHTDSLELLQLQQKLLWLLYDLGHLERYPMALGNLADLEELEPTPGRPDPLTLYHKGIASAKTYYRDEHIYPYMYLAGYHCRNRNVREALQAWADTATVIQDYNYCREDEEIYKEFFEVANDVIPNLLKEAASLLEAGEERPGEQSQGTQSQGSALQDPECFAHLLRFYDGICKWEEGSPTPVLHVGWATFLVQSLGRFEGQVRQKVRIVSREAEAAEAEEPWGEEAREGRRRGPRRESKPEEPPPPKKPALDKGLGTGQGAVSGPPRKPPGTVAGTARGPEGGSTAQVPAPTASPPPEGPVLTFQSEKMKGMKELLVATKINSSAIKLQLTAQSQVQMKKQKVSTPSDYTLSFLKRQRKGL

SMILES | Potency | FP activity change, negative = inhibition
Cc1cccc(/C=N/NC(=O)c2cc(Br)ccc2O)n1 | inconclusive: 17.8 µM [quencher, side channel, partial curve] | –
CC(=O)Nc1ccc(S(=O)(=O)NCCSCc2ccc(Cl)cc2Cl)cc1 | inconclusive: 25.1 µM [quencher, side channel, partial curve] | –
CCOc1ccc(NC(=O)CN2C(=O)CSC2=O)cc1 | – | inactive: 0.346%
COC(=O)c1ccc(N2CCc3ccccc32)c([N+](=O)[O-])c1 | inconclusive: 15.8 µM [quencher, side channel, partial curve] | –
Cc1ccc(Oc2ccc(/C=N/O)cn2)cc1 | – | inactive: 16.6%
Cc1ccc(-c2csc(NC(=S)NC(=O)c3ccco3)n2)cc1 | inconclusive: 39.8 µM [inhibitor, single point] | –
N#C/C(=C/c1ccc(N2CCCCC2)o1)C(=O)Nc1ccc2ccccc2c1 | inconclusive: 3.16 µM [quencher, side channel, full curve] | –
Cn1c(SCc2ccc(F)cc2)nnc1-c1ccncc1 | inconclusive: 11.2 µM [inhibitor, partial curve] | –
CCOC(=O)c1sc2ncn(CC(=O)N(CC)CC)c(=O)c2c1C | inconclusive: 3.55 µM [inhibitor, single point] | –
CC(=O)c1c(C)oc2ccc(NS(=O)(=O)c3ccc(C)cc3)cc12 | inconclusive: 35.5 µM [fluorescent, side channel, single point] | –
CCN(CC)C(=O)CSc1nc2cc3c(cc2c(=O)n1Cc1ccco1)OCO3 | inconclusive: 10 µM [inhibitor, partial curve] | –
COc1cc(NC(=O)Nc2ccccc2OC)c(OC)cc1NC(=O)CN1CCCCC1 | inconclusive: 35.5 µM [quencher, side channel, partial curve] | –
O=C(CN1C(=O)C2CCCCC2C1=O)N1CCN(c2ccc(F)cc2)CC1 (configuration not stated) | inconclusive: 35.5 µM [fluorescent, side channel, single point] | –
COc1ccccc1Nc1nc(-c2ccccc2)nc2ccccc12 | inconclusive: 10 µM [quencher, side channel, partial curve] | –
CC(=O)Nc1ccc(-c2cc(-c3ccccc3)nc(-c3ccccc3)n2)cc1 | inconclusive: 3.55 µM [quencher, side channel, full curve] | –
CCOc1ccccc1NC(=O)CN1CCC(C(=O)c2ccc(F)cc2)CC1 | inconclusive: 25.1 µM [fluorescent, side channel, partial curve] | –
O=C(Nc1ccccc1C(=O)O)c1cc(S(=O)(=O)N2CCCCCC2)ccc1Cl | inconclusive: 22.4 µM [quencher, single point] | –
COc1cccc(NC(=O)C2CCN(c3ncccn3)CC2)c1 | inconclusive: 20 µM [inhibitor, single point] | –
O=S(=O)(c1cccs1)N1CN(Cc2cccs2)c2nc3ccccc3nc21 | inconclusive: 28.2 µM [quencher, side channel, single point] | –

SMILES | Potency | FP activity change, negative = inhibition
Cc1ccc2nc(SCC(=O)Nc3ccc(C)c([N+](=O)[O-])c3)[nH]c2c1 | inconclusive: 39.8 µM [quencher, side channel, single point] | –
COc1ccc2c(CC(=O)NCc3cccs3)coc2c1 | inconclusive: 28.2 µM [quencher, side channel, partial curve] | –
O=C(Nc1ccccc1C(=O)O)c1ccc(NC(=O)c2ccc(Br)o2)cc1 | inconclusive: 11.2 µM [quencher, side channel, partial curve] | –
CCc1cc(/C(Cc2ccccn2)=N\Nc2ccccc2)c(O)cc1O | inconclusive: 39.8 µM [quencher, side channel, single point] | –
O=c1c([N+](=O)[O-])c(O)c2ccccc2n1Cc1ccccc1 | inconclusive: 20 µM [quencher, side channel, partial curve] | –
Cc1ccc(-c2nc(NCc3ccco3)c3ccccc3n2)cc1 | inconclusive: 12.6 µM [quencher, side channel, partial curve] | –
O=C(COc1ccc(Cl)cc1)Nc1nc(-c2cccs2)cs1 | inconclusive: 35.5 µM [quencher, side channel, single point] | –
COc1ccc2nc(NNC(=O)c3cc(=O)c4ccccc4o3)sc2c1 | inconclusive: 14.1 µM [quencher, side channel, partial curve] | –
Cc1csc(SCC(=O)Nc2ccccc2[N+](=O)[O-])n1 | inconclusive: 44.7 µM [inhibitor, partial curve, poor fit] | –
Cc1nc(NC(=O)c2csc3ccccc23)sc1C | inconclusive: 12.6 µM [quencher, side channel, partial curve] | –
Cc1ccc2c(c1)SC1=NC(c3ccccc3)(C(F)(F)F)NC(=O)N12 (configuration not stated) | inconclusive: 39.8 µM [inhibitor, single point] | –
O=C(NCc1ccccc1)c1ccc(CS(=O)(=O)c2ccc(Br)cc2)o1 | inconclusive: 0.316 µM [quencher, side channel, full curve, poor fit] | –
C=CSc1sc(Cl)c(N(CC)CC)c1[N+](=O)[O-] | inconclusive: 31.6 µM [quencher, side channel, single point] | –
CC(=O)Oc1ccccc1/C=C/c1nc2ccccc2c(=O)o1 | – | inactive: 30.9%
COc1cccc(C(C(=O)NC(C)(C)C)N(C(=O)CCC(=O)Nc2cc(C)on2)c2ccc3c(c2)OCCO3)c1OC (configuration not stated) | inconclusive: 8.91 µM [fluorescent, side channel, partial curve] | –
CC(Cc1cccs1)NC(=O)Nc1cccc(Cl)c1 (configuration not stated) | inconclusive: 12.6 µM [quencher, side channel, partial curve] | –
CS(=O)(=O)Nc1cccc(-c2ccc3ncnc(N4CCOCC4)c3c2)c1 | – | inactive: -2.62%
Cc1nn(-c2cccc(Cl)c2)c2c1C(c1cccnc1)C(C#N)=C(N)O2 (configuration not stated) | inconclusive: 22.4 µM [quencher, side channel, partial curve] | –
CNC(=O)CSc1nnc(CCc2ccccc2)n1-c1ccccc1 | inconclusive: 39.8 µM [inhibitor, single point] | –

SMILES | Potency | FP activity change, negative = inhibition
COc1ccc(Br)cc1/C=C/c1ccc2cccc(O)c2n1 | inconclusive: 2.51 µM [quencher, side channel, partial curve, poor fit] | –
O=[N+]([O-])c1cc(Br)c(O)c(/C=N/Nc2nnnn2-c2cccc3ccccc23)c1 | inconclusive: 31.6 µM [quencher, side channel, partial curve] | –
Cc1cccc(C(=O)Oc2ccc(/C=N/NC(=O)c3ccc(O)cc3)cc2)c1 | inconclusive: 12.6 µM [quencher, side channel, partial curve] | –
COC(=O)C1(C(=O)OC)C[C@@H]2CON=C2[C@H]1c1ccccc1 | inactive | –
CCOc1ccc(NCc2nnc(SCC(=O)Nc3cc(C)on3)n2-c2ccccc2OC)cc1 | inconclusive: 10 µM [inhibitor, partial curve] | –
COc1ccc(-c2nc3c(c4c2C[C@H](c2ccccc2)OC4)CN(C(=O)C2CCCCC2)CC3)c(C)c1 | inconclusive: 7.08 µM [fluorescent, side channel, single point] | –
O=C(Nc1ccc(Br)cc1)c1cccc(N2C(=O)C3CCCCC3C2=O)c1 (configuration not stated) | inconclusive: 31.6 µM [quencher, side channel, single point] | –
O=C(O)c1ccccc1Nc1ccc(CCc2ccc(Cl)c(Cl)c2)cc1 | inconclusive: 28.2 µM [quencher, partial curve] | –
COc1ccc2c(c1)[nH]c1c(=O)n(CCN3CCCC3)cnc12 | inconclusive: 2.82 µM [inhibitor, partial curve] | –
Cc1ccc(-c2nnc3n2N=C(c2ccccc2Br)CS3)cc1 | inconclusive: 3.16 µM [fluorescent, side channel, single point] | –
CCCCCCCCCCCCCCCC(=O)OC[C@H](O)[C@H]1OC[C@@H](O)[C@@H]1O | – | inactive: -18.3%
COc1ccc(/C=C(/CC(=O)Nc2ccccc2)c2nc3ccccc3s2)cc1 | inconclusive: 17.8 µM [quencher, side channel, partial curve] | –
COc1ccc(OC)c(Nc2nc(=O)c3cccnc3s2)c1 | inconclusive: 39.8 µM [inhibitor, single point] | –
CCCN(CCC)S(=O)(=O)c1ccc(C(=O)Nc2nnc(-c3cc(OC)cc(OC)c3)o2)cc1 | inconclusive: 8.91 µM [quencher, side channel, partial curve] | –
CCC1CCC(C(=O)NC(C(=O)NCCc2ccc(S(N)(=O)=O)cc2)C(C)C)CC1 (configuration not stated) | inconclusive: 12.6 µM [fluorescent, side channel, partial curve] | –
N#C/C(=N\Nc1ccc(S(=O)(=O)N2CCCCC2)cc1)C(N)=S | inconclusive: 20 µM [quencher, side channel, partial curve] | –
Cc1ccc(-n2nc3c(N4CCC(C(=O)NCc5ccccc5C)CC4)nnc(C)c3c2C)cc1 | inconclusive: 2.82 µM [fluorescent, side channel, full curve, poor fit] | –
O=C(OCCN=C1NS(=O)(=O)c2ccccc21)c1cccnc1 | inconclusive: 3.16 µM [quencher, side channel, single point] | –
Cn1ccnc1C1CCCCN1Cc1nc(Cc2cccc(C(F)(F)F)c2)no1 (configuration not stated) | inconclusive: 10 µM [fluorescent, side channel, partial curve] | –
